# Experimental data: paper PMC4336329 (PLoS ONE, 2015)
# The whole screen tested about 310,000 compounds, of which about 14,000 (4.5%) showed an effect of 50% or more. Effects have a minus sign here. The list shows a part of the results.
# Biological target: human ether-à-go-go-related gene (hERG) potassium channel (human, UniProt Q12809)
# Experiment: primary screen, population patch clamp on CHO cells stably expressing hERG
# 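Further: peak tail current of the secondary pulse compared with the same well before compound.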
# Chain of human ether-à-go-go-related gene (hERG) potassium channel (Q12809 whole entry, looked up): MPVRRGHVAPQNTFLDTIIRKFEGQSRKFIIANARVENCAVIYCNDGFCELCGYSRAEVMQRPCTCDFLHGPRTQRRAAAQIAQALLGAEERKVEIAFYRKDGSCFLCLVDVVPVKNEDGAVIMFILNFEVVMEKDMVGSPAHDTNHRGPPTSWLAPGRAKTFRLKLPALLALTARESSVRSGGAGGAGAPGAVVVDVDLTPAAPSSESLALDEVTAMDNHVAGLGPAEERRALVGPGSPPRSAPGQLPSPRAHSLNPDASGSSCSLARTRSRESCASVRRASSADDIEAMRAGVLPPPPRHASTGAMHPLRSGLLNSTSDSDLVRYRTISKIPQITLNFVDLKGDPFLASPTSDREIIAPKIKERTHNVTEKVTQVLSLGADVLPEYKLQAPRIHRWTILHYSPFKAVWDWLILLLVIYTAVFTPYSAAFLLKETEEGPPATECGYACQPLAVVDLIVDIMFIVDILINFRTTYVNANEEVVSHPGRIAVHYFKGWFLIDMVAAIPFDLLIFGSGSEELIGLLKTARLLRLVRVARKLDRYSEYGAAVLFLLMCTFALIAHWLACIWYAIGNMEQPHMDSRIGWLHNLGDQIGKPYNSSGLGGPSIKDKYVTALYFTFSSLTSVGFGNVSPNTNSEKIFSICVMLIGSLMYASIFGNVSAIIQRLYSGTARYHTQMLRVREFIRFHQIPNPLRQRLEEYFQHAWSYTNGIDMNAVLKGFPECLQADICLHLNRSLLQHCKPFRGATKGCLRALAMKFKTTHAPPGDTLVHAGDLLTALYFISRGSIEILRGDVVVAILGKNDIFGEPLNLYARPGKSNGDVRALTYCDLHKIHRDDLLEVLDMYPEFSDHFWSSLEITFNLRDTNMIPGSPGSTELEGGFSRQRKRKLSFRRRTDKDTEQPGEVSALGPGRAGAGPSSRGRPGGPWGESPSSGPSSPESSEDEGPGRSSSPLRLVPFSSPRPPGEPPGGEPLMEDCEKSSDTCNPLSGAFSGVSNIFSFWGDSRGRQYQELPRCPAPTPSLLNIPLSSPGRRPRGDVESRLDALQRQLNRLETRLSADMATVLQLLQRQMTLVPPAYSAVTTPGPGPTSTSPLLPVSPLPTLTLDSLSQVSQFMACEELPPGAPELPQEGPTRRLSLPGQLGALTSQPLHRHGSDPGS
row,SMILES,"hERG current change (%, negative = inhibition) at 10uM"
1,Cc1onc(-c2c(Cl)cccc2Cl)c1C(=O)NNC(=O)c1c(-c2c(Cl)cccc2Cl)noc1C,13.9%
2,S=C(NC1CCCC1)N1CCN(c2ccc(Cl)cc2)CC1,-13.6%
3,Cc1nn2c3ccccc3n(CCN3CCCCC3)c2nc1=O,-13.1%
4,Cc1ccc(S(=O)(=O)N(C)CCCC(=O)N2CCN(C=O)CC2)cc1,-3.96%
5,Cc1sc2nc(CC(N)=O)[nH]c(=O)c2c1-c1ccccc1,13.1%
6,COc1ccccc1N1CCN(S(=O)(=O)c2cccs2)CC1,-19.6%
7,CC(C)(C)N1CC(c2nc3ccccc3n2Cc2ccc(Cl)cc2)CC1=O (stereo not drawn),-42.1%
8,O=C(COC(=O)c1ccc(S(=O)(=O)Nc2ccccc2)cc1)NCCN1C(=O)CSC1=O,-2.47%
9,COc1ccc(OCC(=O)OCC(=O)N2CC(=O)Nc3ccccc32)cc1,-3.16%
10,CC(=O)Nc1c(S(=O)(=O)c2ccccc2)c2nc3ccccc3nc2n1Cc1ccccc1,1.39%
11,Cc1nnc(-c2cccc(Br)c2)c2cn(-c3ccccc3)nc12,-24.4%
12,O=C(CN(CC1CCCO1)C(=O)CNS(=O)(=O)c1ccccc1)NCc1ccc(F)cc1 (stereo not drawn),11.9%
13,Cn1cc(C[C@H](NC(=O)OC(C)(C)C)C(=O)N[C@@H](CO)Cc2ccccc2)c2ccccc21,-8.2%
14,C/C(=N\OCC(=O)Nc1ccc(F)c(F)c1F)c1cc2ccccc2o1,8.09%
15,O=C(CSc1nc2ccsc2c(=O)n1NC(=O)c1ccccc1)NCc1ccco1,4.37%
16,CCCCN(C(=O)c1c(CC)noc1C)c1c(N)n(CCCC)c(=O)[nH]c1=O,7.47%
17,CCOC(=O)c1c(C)n(C)c2ccc(OC(C)C(=O)OC)cc12 (stereo not drawn),-10%
18,Nc1ncnc2c1ncn2C1CCC(CO)C(O)C1 (stereo not drawn),7.52%
19,CCOc1cc(NC(=S)NCc2ccco2)c(OCC)cc1NC(=O)CC,-0.376%
20,Cc1cc(C(=O)N/N=C/c2cccs2)no1,1.55%
21,O=c1c(-c2ccc3c(c2)OCCO3)coc2c(CN3CCOCC3)c(O)ccc12,-0.591%
22,CC(C)CN(C)C(=O)CC1C(=O)NCCN1C (stereo not drawn),18.3%
23,O=C(O[C@@H]1[C@H](Cc2ccccc2)NS(=O)(=O)[C@H]2C[C@@H]3C=C[C@]12O3)c1ccccc1Br,12%
24,Cc1cc(C)n(-c2ccc(NC(=O)C3CCCCN3C(=O)c3ccoc3)cc2)n1 (stereo not drawn),-2.37%
